Assay results from the supplement of paper PMC11417369.
± gives the standard deviation of the averaged measurements. The list shows a part of the results.

tested on: PfAP2-LT AP2 domain (GST-tagged); test: gcPBM binding intensity (ln(normalized median fluorescence intensity)); higher = stronger DNA binding
Procedure, shortened: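 In this array assay, P. falciparum DNA-binding domains with a GST tag, expressed in E. coli, were applied for 1 h to primer-extended double-stranded 36-bp intergenic genomic probes and negative controls on an Agilent 4 × 180k array. Bound protein was visualised with Alexa488 anti-GST antibody at 488 nm. Binding intensity is the highest Masliner-normalised natural-log median intensity across replicate spots of either probe orientation.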

Sequence	gcPBM binding intensity (ln)
TCATTGTTAAGCTGAAGTACTTATAATTACATCGAG [XGTACX_site6340]	8.67 ± 0.33
AATATATTTTAATATACACACATATCTGCTCTTTAA [CACACA_site6130]	8.94 ± 0.41
TGTCAATCATATAAATGTACATTTTAAATGAGGTGT [XGTACX_site7391]	8.84 ± 0.34
TATTAGCATGTTATTACACACAATATAAAATATATA [CACACA_site1401]	8.82 ± 0.34
GAAAAGAAAAATAAACGTACATAAATATTAACATTA [XGTACX_site8213]	8.77 ± 0.51
CAAATAAAAATAAGGAGTACAATTAAAAAAGGAAGG [XGTACX_site4366]	8.89 ± 0.57
AAAATAAAAAAGTGTACACATATTAAAATGTATTTA [CACACA_site4424]	8.82 ± 0.37
ATTATATAAATTATATGTACGTATTTTTTTTTTTTT [XGTACX_site1908]	8.66 ± 0.45
AAATTATGAACATATTGTACATATATATATATATAT [XGTACX_site8269]	9.72 ± 0.028
AATTAAATTACTTATACACACATAAAATGTCTGTAT [CACACA_site997]	9.1 ± 0.38
CATGTATGTACCATGGTGCAACAATATTTTTAACAA [GTGCAC_site9597]	8.67 ± 0.48
TTTGGGATAAAACAAAGTACTAACAAAATATATAAT [XGTACX_site8240]	8.76 ± 0.45
ATTCTTGTTATATAAGGTACAGAACAAAATATAAAA [XGTACX_site5510]	8.63 ± 0.42
TGCATTTTACTTGTTACACACATATAAAATTAACCA [CACACA_site7387]	8.82 ± 0.42
TTTTTCTATTCCATTCAACACACAAAAATGTATGCT [CACACA_site8268]	8.9 ± 0.41
AAAGTTTTAAGAAAATGTACATAAGTATACATATAT [XGTACX_site1293]	8.72 ± 0.47
AAATGGAGTTAATATTGTACATATATATATATATAT [XGTACX_site5452]	9.46 ± 0.38
TTTTTTTTTTTTTTAACACACATATAAATATTTTTC [CACACA_site6985]	8.66 ± 0.51
TTTTATTATATGGAGGTGCATATATAATAATATAAT [GTGCAC_site9477]	8.48 ± 0.3
ATCGGTAATATTAACACACACATTTATTTATATTTA [CACACA_site6638]	9.13 ± 0.33
TTCTTTTTAAATATACTAATTATGTATAAAACAGAA [GTGCAC_negctrl_site131]	8.12 ± 0.49
ATGTATGTAATAAAAAGTACATATGTTCATAATAAA [XGTACX_site842]	9.02 ± 0.42

Sequence	gcPBM binding intensity (ln)
TTTTCATATATTTATTGTACATATTACATATATAAT [XGTACX_site2425]	8.89 ± 0.38
TTTTATAAATATTTTTGTACACATTTAAATATTATT [XGTACX_site4973]	8.64 ± 0.45
ATTTATAAATCAAAGTGTACATATGTTTTATTTTTT [XGTACX_site804]	8.86 ± 0.43
TTTTTTTAATAAAAGTGTACCAAATTATATACACAT [XGTACX_site6811]	8.69 ± 0.45
AGAGAGAACGGTATAACATGCAATAAATTTCAGAAG [TGCATGCA_site423]	8.91 ± 0.49
TTTTTTTTTTTTTGTACATGCAAATATTATGAACAC [TGCATGCA_site571]	8.63 ± 0.42
AACACATACATATATGCACACATTTTATTCCATTAT [CACACA_site2834]	9.31 ± 0.33
GACAAATTAATCGATTGTACACAATTTGTTTCGTTG [XGTACX_site35]	9.05 ± 0.45
TTCACATATATATAACGTACATTATTATTATTCTGA [XGTACX_site6006]	8.69 ± 0.44
TTTTTTTTTCCTTCTTGTACATATTATATATACATA [XGTACX_site5988]	8.72 ± 0.4
TGGAACGTAATAAAATGTACATACGTTTTTCATATG [XGTACX_site6229]	8.79 ± 0.4
TCTTATTTAATTAAACAAAAGAAAAAGAAAGAAAAG [CACACA_negctrl_site1569]	8.33 ± 0.47
TTAGAAGGGATTAAAGTGCAAAATAGGATTAGAGTA	8.82 ± 0.71
TACAAGTATAAATAAGCACACATGTGTATATGTACA [CACACA_site7911]	9.25 ± 0.42
ATGTTATATTATAAAAGTACATTTTATTTTTATTTA [XGTACX_site4365]	8.54 ± 0.5
ATTTCCTTTTTCTGTTGTACTCATAAAATAATATGT [XGTACX_site7234]	8.9 ± 0.47
TTAATTTATAAAAACACACACAGGTAAAAAGGTGCA [CACACA_site1177]	9.16 ± 0.42
GTTAAGTGTATATATACACACATATGTAATACATGA [CACACA_site3048]	9.21 ± 0.32
TAATTAAAATTATATATTAGAAAAAACATATAAAAC [CACACA_negctrl_site190]	8.54 ± 0.42
ATATGTAGAATAAAAAAAAAAAAAAAAAAAAAAAAT [CACACA_negctrl_site621]	8.78 ± 0.62
AATATTGAAATAACGCGTACAAAAAAAAGTTATATT [XGTACX_site6559]	9.08 ± 0.51
AAAAAAAGTGACTCCTTACACACTTTACATAATTTA [CACACA_site820]	8.7 ± 0.42
